Measured values from article PMC3792071.
Where two headings read alike, the source gives them in different places. These are yes or no findings as the source states them, for the method shown. For some of these results: Binding seen in cells or lysates may run through a third protein. Some entries that bind do so weakly or less than the wild type. Each block holds one substance with its values, some of them ahead of it.

Sequences of proteins named here, by UniProt entry; tags and fusion partners are left off. A change or cut given only in a name is not applied to a line headed by its entry. A line that says so, or that is headed by a name, gives the form on record, which may keep a tag or linker. Residues count along the entry.
UniProt P36873: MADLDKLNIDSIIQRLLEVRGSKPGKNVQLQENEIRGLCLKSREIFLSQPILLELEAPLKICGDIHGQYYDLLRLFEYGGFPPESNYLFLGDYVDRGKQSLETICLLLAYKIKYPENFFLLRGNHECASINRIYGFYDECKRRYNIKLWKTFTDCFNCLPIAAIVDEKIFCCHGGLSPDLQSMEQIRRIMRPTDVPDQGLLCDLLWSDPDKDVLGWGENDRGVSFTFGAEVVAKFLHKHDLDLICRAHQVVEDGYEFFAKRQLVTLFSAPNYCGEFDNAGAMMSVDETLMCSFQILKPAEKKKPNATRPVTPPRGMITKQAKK
GAL4-binding domain PP1γ2 (pAS2-1-PP1γ2) (P36873, form named): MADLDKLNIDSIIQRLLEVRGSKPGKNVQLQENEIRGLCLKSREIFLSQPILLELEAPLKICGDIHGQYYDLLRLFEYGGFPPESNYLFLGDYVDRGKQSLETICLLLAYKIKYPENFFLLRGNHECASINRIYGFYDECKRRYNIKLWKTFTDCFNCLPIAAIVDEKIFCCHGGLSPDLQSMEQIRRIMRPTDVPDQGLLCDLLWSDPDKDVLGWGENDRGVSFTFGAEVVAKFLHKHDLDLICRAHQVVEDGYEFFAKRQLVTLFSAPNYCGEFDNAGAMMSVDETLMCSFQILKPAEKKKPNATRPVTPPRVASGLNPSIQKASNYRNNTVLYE
UniProt P63088: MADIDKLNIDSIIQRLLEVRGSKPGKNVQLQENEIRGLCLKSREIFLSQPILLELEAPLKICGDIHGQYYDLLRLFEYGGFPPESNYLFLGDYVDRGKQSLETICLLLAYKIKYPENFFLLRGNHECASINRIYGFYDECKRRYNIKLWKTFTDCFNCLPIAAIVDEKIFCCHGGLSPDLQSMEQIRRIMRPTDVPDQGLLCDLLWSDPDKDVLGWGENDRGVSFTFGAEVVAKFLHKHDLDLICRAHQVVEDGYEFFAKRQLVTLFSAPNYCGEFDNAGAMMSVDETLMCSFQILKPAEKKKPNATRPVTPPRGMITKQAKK
UniProt Q5PQX1: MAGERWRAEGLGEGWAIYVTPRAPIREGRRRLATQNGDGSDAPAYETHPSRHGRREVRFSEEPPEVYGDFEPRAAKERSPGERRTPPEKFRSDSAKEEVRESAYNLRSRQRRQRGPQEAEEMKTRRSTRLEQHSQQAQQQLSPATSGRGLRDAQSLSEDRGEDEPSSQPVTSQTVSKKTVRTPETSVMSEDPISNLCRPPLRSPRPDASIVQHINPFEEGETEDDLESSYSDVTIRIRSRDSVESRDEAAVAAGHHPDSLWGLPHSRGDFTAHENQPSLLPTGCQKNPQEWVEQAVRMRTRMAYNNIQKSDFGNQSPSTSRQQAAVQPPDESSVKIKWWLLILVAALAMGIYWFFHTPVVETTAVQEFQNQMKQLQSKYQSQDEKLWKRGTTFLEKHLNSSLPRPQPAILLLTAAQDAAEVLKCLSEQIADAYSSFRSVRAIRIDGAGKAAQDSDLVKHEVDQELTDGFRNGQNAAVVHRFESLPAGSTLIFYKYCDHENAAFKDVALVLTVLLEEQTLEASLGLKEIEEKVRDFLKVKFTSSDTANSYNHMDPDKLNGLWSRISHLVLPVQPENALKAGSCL
GAL4 activation domain LAP1B-BM3 (pACT-BM3) (Q5JTV8, residues 237-583): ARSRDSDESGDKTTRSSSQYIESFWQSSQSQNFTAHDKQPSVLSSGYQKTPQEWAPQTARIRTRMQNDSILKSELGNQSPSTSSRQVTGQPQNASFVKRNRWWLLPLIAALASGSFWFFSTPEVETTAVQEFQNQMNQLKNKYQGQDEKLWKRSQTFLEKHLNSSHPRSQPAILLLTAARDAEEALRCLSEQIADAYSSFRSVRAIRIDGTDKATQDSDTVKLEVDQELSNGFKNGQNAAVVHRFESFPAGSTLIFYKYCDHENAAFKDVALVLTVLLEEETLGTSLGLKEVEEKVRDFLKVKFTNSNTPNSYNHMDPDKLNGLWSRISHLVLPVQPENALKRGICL
6×His-tag full-length LAP1B (pET-28c) (Q5JTV8-3, form named): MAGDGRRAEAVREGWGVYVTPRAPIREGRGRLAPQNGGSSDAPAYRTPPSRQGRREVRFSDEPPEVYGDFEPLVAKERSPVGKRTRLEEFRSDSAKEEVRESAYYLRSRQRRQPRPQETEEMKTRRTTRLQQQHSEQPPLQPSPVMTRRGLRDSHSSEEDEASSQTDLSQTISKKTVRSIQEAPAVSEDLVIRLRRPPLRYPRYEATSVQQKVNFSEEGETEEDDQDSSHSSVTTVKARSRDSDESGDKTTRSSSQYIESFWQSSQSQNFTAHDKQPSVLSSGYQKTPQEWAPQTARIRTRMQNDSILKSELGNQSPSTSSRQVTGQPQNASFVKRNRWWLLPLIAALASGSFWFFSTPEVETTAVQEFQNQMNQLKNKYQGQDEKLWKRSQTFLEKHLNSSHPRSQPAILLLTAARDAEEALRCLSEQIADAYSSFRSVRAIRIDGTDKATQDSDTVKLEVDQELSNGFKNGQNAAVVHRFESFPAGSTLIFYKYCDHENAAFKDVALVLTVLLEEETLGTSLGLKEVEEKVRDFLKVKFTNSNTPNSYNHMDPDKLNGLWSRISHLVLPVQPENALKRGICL
6×His-tag LAP1B-BM1 (pET-28c) (Q5JTV8-3, form named): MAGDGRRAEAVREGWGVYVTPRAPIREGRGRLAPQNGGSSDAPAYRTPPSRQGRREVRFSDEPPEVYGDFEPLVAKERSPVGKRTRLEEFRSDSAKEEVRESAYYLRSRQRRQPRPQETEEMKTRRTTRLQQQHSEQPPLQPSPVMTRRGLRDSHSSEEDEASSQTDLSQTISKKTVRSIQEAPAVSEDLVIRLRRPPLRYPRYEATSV
GAL4 activation domain LAP1B-BM1/2 (pACT-BM1/2) (Q5JTV8-3, form named): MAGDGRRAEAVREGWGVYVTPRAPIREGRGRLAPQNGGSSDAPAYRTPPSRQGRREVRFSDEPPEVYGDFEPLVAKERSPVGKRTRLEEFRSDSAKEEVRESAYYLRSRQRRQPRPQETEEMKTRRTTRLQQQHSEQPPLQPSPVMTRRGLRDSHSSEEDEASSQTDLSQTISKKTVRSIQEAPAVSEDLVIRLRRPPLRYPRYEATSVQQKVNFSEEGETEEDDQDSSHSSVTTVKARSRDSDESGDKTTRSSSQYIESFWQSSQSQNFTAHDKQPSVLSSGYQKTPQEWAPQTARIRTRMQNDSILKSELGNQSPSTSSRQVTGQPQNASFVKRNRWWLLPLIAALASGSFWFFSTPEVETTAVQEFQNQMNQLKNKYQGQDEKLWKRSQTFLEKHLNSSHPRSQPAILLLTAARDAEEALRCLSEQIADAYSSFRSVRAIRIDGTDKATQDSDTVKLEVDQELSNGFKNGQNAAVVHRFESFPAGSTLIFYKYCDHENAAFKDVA
6×His-tag LAP1B-BM2 (pET-28c) (Q5JTV8-3, form named): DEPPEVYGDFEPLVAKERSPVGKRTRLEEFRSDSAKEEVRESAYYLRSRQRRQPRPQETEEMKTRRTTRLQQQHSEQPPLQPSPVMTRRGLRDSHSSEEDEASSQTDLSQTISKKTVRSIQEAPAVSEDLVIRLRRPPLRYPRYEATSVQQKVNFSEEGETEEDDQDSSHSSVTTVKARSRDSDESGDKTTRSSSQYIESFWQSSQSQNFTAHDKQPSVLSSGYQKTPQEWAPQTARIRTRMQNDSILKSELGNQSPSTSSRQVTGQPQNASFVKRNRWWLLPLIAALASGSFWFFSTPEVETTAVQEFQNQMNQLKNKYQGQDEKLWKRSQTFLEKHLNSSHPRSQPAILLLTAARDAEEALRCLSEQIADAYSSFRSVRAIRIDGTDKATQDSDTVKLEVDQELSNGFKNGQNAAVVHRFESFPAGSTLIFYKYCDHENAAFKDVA
6×His-tag LAP1B-BM1/2+TM (pET-28c) (Q5JTV8-3, form named): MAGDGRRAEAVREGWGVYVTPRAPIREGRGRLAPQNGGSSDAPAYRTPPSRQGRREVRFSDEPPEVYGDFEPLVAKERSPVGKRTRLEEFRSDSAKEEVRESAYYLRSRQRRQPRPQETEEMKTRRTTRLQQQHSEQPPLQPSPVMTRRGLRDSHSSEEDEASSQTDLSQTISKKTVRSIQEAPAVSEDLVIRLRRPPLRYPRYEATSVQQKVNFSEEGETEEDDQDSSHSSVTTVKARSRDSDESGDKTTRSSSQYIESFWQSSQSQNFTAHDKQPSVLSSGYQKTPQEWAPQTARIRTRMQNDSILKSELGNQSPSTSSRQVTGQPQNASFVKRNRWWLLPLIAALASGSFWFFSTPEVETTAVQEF

Assays:
[1] = biological target: GAL4-binding domain PP1γ2 (pAS2-1-PP1γ2) (UniProt P36873); test: two-hybrid; yeast co-transformation in AH109: pAS2-1-PP1 baits with pACT2-LAP1B or deletion mutants; HIS3, ADE2 and MEL1 reporters; SD/QDO with X-α-Gal, 30°C, 2-4 days
[2] = biological target: GAL4-binding domain PP1γ1 (pAS2-1-PP1γ1) (UniProt P36873); test: as above
[3] = biological target: GAL4-binding domain PP1γ2 (pAS2-1-PP1γ2) (UniProt P36873); test: two-hybrid; yeast two-hybrid screens of a human brain cDNA library with PP1α, PP1γ1 and PP1γ2 as baits
[4] = biological target: GAL4-binding domain PP1γ1 (pAS2-1-PP1γ1) (UniProt P36873); test: as above
[5] = biological target: purified recombinant PP1γ1 protein (UniProt P36873); test: far-Western, overlay or dot blot; 250 ng purified recombinant PP1γ1 separated on 12% SDS-PAGE, transferred to nitrocellulose, overlaid with in vitro translated LAP1B or LAP1B (ΔA185); detected with LAP1 antibody and ECL; only the target purified
[6] = biological target: endogenous PP1γ of rat cortex (rat (endogenous in cortex)) (UniProt P63088); test: co-IP; rat cortex extracts in non-denaturing lysis buffer (50 mM Tris-HCl pH 8.0, 120 mM NaCl, 4% CHAPS); PP1γ, PP1α or LAP1 antibodies on Dynabeads Protein G
[7] = biological target: endogenous LAP1B of rat brain (rat (endogenous in brain)) (UniProt Q5PQX1); test: as above
[8] = biological target: 6×His-tag LAP1B-BM1 (pET-28c) (human) (UniProt Q5JTV8); test: far-Western, overlay or dot blot; bacterial extracts with 6×His-LAP1B constructs separated on 10% SDS-PAGE, transferred to nitrocellulose, overlaid with 1 µg/mL purified recombinant PP1γ1; bound PP1γ1 detected with PP1γ antibody and ECL; only the binder purified
[9] = biological target: 6×His-tag LAP1B-BM2 (pET-28c) (human) (UniProt Q5JTV8); test: as above
[10] = biological target: 6×His-tag full-length LAP1B (pET-28c) (human) (UniProt Q5JTV8); test: as above
[11] = biological target: 6×His-tag LAP1B-BM1/2+TM (pET-28c) (human) (UniProt Q5JTV8); test: as above

- binding [1]: binds
- binding [2]: binds
- binding [3]: binds
- binding [4]: binds
Substance: GAL4 activation domain LAP1B (pACT2-LAP1B) (from UniProt Q5JTV8-3 1-584)

- binding [2]: binds
Substance: GAL4 activation domain LAP1B-BM1 (pACT-BM1) (from UniProt Q5JTV8-3 1-209) (domain or fragment)

- binding [2]: binds
Substance: GAL4 activation domain LAP1B-BM1/2 (pACT-BM1/2) (from UniProt Q5JTV8-3 1-508) (domain or fragment)

- binding [2]: no binding
Substance: GAL4 activation domain LAP1B-BM2 (pACT-BM2) (from UniProt Q5JTV8-3 61-508) (domain or fragment)

- binding [2]: no binding
Substance: GAL4 activation domain LAP1B-BM3 (pACT-BM3) (from UniProt Q5JTV8-3 238-584) (domain or fragment)

- binding [5]: binds
Substance: LAP1B-IVT (from UniProt Q5JTV8-3 1-584)

- binding [6]: binds
Substance: endogenous LAP1B of rat brain (from UniProt Q5PQX1 1-583)

- binding [7]: binds
Substance: endogenous PP1γ of rat cortex (from UniProt P63088 1-323) (enzyme)

- binding [8]: binds
- binding [9]: no binding (tested: 1 µg/mL PP1γ1)
- binding [10]: binds
- binding [11]: binds
- binding ([11]; record 2): binds
Substance: purified recombinant PP1γ1 protein (from UniProt P36873-1 1-323) (enzyme)
